According to patent US20120135013A1, “CD45 and Methods and Compounds Related Thereto” (priority 2007, published 2012):

Key:
J774A.1 cells [1] = assay: cells; assay type: cell-based, mouse
J774A.1 cells [2] = tested on: J774A.1 cells
Experimental: At 24, 48, 72 and 96 hours, the cells were stained and analyzed by flow cytometry methods known in the art. The cells (1×10^6) were resuspended in Fc block (anti CD16/CD32 antibody diluted in RPMI containing 10% FBS) (BD Biosciences, San Diego, Calif.), incubated on ice for 30 minutes, centrifuged and stained with either isotype control antibody or FITC conjugated CD45 antibody (BD Biosciences, San Diego, Calif.). After incubation on ice for 60 minutes, the cells were washed and resuspended in 3.7% formaldehyde. FACS analysis was performed using a FACSCalibur flow cytometer (BD Biosciences, San Diego, Calif.) and methods known in the art. Data was analyzed using FlowJo software (Tree Star, Inc; Ashland Oreg.).

[3] = Mus musculus, J774.A1, read-out: ED50 (μM)

| Molecule | EC50 (J774A.1 cells [1]; [3]) [µM] | EC50 (J774A.1 cells [1]; read-out: ED50) [µM] | toxicity to the cells (J774A.1 cells [2]) |
| --- | --- | --- | --- |
| O=C1C(SCCO)=C(SCCO)C(=O)c2ccccc21 [NSC 95397] | 5 to 25 | 6 to 12 | – |
| O=C1C=C(SCCO)C(=O)c2ccccc21 [NSC 148596] | 5 to 25 | – | – |
| NC(=O)CCSC1=CC(=O)c2ccccc2C1=O [NSC 270011] | 5 to 25 | 6 to 12 | – |
| NC(=O)CCCSC1=CC(=O)c2ccccc2C1=O [NSC 270012] | 5 to 25 | 6 to 12 | – |
| CD45 PMO (CCACAAACCCATGGTCATATC; all phosphorodiamidate morpholino (PMO)) | – | – | not toxic |

Like-named read-outs stand apart in the source and are kept apart here.
